{"source": "the supplement of paper PMC3334620", "note": "Over roughly 33,000 sequences, “E-score (-0.5 to 0.5)” has its median near -0.035; the highest 2% begin near 0.35. Some of the results follow."}
{"biological_target": "T1, Pdr3 (UniProt P33200)", "T1 sequence": "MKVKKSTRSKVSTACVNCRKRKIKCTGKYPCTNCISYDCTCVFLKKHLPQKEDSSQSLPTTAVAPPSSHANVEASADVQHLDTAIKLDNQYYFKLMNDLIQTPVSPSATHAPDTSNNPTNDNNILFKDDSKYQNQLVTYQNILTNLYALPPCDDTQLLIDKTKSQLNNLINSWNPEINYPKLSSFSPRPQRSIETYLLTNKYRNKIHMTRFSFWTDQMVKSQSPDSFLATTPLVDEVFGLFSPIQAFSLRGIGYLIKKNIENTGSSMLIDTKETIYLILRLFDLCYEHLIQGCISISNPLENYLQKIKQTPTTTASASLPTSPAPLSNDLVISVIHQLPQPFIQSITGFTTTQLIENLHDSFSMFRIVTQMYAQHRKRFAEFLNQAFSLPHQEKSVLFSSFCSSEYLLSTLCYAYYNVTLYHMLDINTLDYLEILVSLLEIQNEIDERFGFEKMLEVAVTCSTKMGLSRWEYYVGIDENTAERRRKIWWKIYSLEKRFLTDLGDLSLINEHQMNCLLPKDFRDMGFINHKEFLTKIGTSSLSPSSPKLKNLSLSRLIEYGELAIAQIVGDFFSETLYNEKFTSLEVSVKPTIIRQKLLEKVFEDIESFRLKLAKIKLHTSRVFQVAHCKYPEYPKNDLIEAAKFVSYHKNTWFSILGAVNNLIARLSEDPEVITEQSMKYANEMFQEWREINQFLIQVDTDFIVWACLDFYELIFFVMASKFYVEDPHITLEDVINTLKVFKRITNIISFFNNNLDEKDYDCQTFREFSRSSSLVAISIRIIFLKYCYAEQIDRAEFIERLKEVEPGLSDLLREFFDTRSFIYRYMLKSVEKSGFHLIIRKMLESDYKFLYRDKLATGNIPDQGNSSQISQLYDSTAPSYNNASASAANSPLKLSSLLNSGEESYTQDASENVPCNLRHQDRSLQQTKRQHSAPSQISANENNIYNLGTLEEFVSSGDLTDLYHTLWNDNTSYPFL", "assay": "PBM E-score (8-mer binding enrichment) (E-score (-0.5 to 0.5)); higher = stronger / more preferred TF binding; most listed sequences are background and not binding sites", "conditions": "protein concentration: 200 nM; construct: GST-full length", "outline": "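Using PURExpress in vitro transcription/translation, GST-tagged yeast transcription factors were made in full-length or DNA-binding-domain form. These were applied at about 100-200 nM to double-stranded universal all-10-mer Agilent arrays, and bound protein was detected with fluorescent anti-GST. Scans were normalised with masliner before the Universal PBM Analysis Suite assigned E-scores to ungapped eight-base words pooled with their reverse complements.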"}
{"sequence": "TGAAAGCA", "PBM E-score": -0.084}
{"sequence": "AACATCTC", "PBM E-score": -0.144}
{"sequence": "GCTCCAAC", "PBM E-score": -0.0247}
{"sequence": "GTAACCTA", "PBM E-score": 0.119}
{"sequence": "CTTGATAC", "PBM E-score": -0.287}
{"sequence": "GAGCACTC", "PBM E-score": 0.0159}
{"sequence": "GGACACCA", "PBM E-score": 0.167}
{"sequence": "CAGGCGCC", "PBM E-score": 0.0233}
{"sequence": "GCCATAAC", "PBM E-score": -0.101}
{"sequence": "AAGCGCAC", "PBM E-score": -0.0371}
{"sequence": "CTTCCACA", "PBM E-score": -0.166}
{"sequence": "ATCGCCAC", "PBM E-score": 0.0847}
{"sequence": "AGGATTAC", "PBM E-score": -0.141}
{"sequence": "CCTAAAAC", "PBM E-score": -0.159}
{"sequence": "TACTCATA", "PBM E-score": -0.042}
{"sequence": "ATGTTAAG", "PBM E-score": -0.105}
{"sequence": "ACGAGCTA", "PBM E-score": -0.123}
{"sequence": "GAAATCCC", "PBM E-score": 0.0874}
{"sequence": "GGTCTGGA", "PBM E-score": -0.0719}
{"sequence": "CTCGTTAA", "PBM E-score": -0.177}
{"sequence": "AATTCGGA", "PBM E-score": 0.365}
{"sequence": "GGCGTCCA", "PBM E-score": -0.00919}
{"sequence": "CAACGTTG", "PBM E-score": 0.0678}
{"sequence": "ATCTTTGC", "PBM E-score": 0.0117}
{"sequence": "ACGTTTAA", "PBM E-score": -0.159}
{"sequence": "GCAAACAA", "PBM E-score": 0.0332}
{"sequence": "AGTCAAAC", "PBM E-score": -0.166}
{"sequence": "ACGGGTAT", "PBM E-score": 0.0895}
{"sequence": "CAACATCG", "PBM E-score": 0.0554}
{"sequence": "GGCAACTA", "PBM E-score": 0.0892}
{"sequence": "ACATAGGG", "PBM E-score": -0.0992}
{"sequence": "GCTTTACA", "PBM E-score": 0.0212}
{"sequence": "CGGATCAG", "PBM E-score": 0.334}
{"sequence": "GATAAACA", "PBM E-score": 0.0969}
{"sequence": "AGAATACT", "PBM E-score": -0.121}
{"sequence": "AACTAGTA", "PBM E-score": -0.225}
{"sequence": "AAGTGTCC", "PBM E-score": 0.113}
{"sequence": "CAACCAGA", "PBM E-score": 0.0315}
{"sequence": "AGCCTTGG", "PBM E-score": -0.306}
{"sequence": "CCCAGAAG", "PBM E-score": -0.163}
{"sequence": "CGAGGCTA", "PBM E-score": -0.0662}
{"sequence": "CAAGTAAC", "PBM E-score": -0.0792}
{"sequence": "CAACTAAA", "PBM E-score": -0.062}
{"sequence": "AACGAGTT", "PBM E-score": -0.219}
{"sequence": "CCCATTGA", "PBM E-score": 0.0107}
{"sequence": "GCCATCAC", "PBM E-score": -0.166}
{"sequence": "GCACTCTA", "PBM E-score": -0.0708}
{"sequence": "ATGTATGA", "PBM E-score": 0.00853}
{"sequence": "ACGCGAAG", "PBM E-score": 0.0438}
{"sequence": "AAACACGG", "PBM E-score": 0.117}
{"sequence": "AGAGGGGG", "PBM E-score": -0.313}
{"sequence": "ACATGGCA", "PBM E-score": -0.0115}
{"sequence": "ACATTGTG", "PBM E-score": -0.152}
{"sequence": "CAACCCGA", "PBM E-score": 0.212}
{"sequence": "AAACTACC", "PBM E-score": -0.00608}
{"sequence": "ATTAATTA", "PBM E-score": 0.00925}
{"sequence": "AGGAGTGA", "PBM E-score": -0.0515}
{"sequence": "ACGTGGCC", "PBM E-score": -0.246}
{"sequence": "CGTTTCGA", "PBM E-score": -0.259}
{"sequence": "AAGATGCT", "PBM E-score": -0.108}
{"sequence": "GCGACAGC", "PBM E-score": -0.0709}
{"sequence": "AAGAATGA", "PBM E-score": -0.136}
{"sequence": "CCCGTCCG", "PBM E-score": 0.241}
{"sequence": "CCAATCCA", "PBM E-score": -0.0182}
{"sequence": "ACTCCAGC", "PBM E-score": -0.113}
{"sequence": "ACCACTAG", "PBM E-score": -0.133}
{"sequence": "ACCGTCAT", "PBM E-score": -0.0103}
{"sequence": "CGGCCCAG", "PBM E-score": 0.0316}
{"sequence": "CCTCGACG", "PBM E-score": 0.0752}
{"sequence": "CAGGGGTA", "PBM E-score": -0.117}
{"sequence": "CGCTAGCG", "PBM E-score": -0.13}
{"sequence": "AACCTTGT", "PBM E-score": -0.222}
{"sequence": "TCTTCCCA", "PBM E-score": -0.0869}
{"sequence": "CAAGCACG", "PBM E-score": -0.1}
{"sequence": "AACCCCAT", "PBM E-score": 0.0711}
{"sequence": "GACTCCCC", "PBM E-score": -0.0585}
{"sequence": "GCGGCGTA", "PBM E-score": 0.156}
{"sequence": "AACCCCAC", "PBM E-score": 0.0512}
{"sequence": "GCCTCAGA", "PBM E-score": -0.0687}
{"sequence": "CAACCCCG", "PBM E-score": 0.209}
{"sequence": "CGAACTCC", "PBM E-score": 0.132}
{"sequence": "AACCCAGC", "PBM E-score": -0.118}
{"sequence": "GCCTATAA", "PBM E-score": -0.213}
{"sequence": "GCGGACAC", "PBM E-score": 0.21}
{"sequence": "TACCGATA", "PBM E-score": 0.0617}
{"sequence": "AGGGTTGG", "PBM E-score": -0.0309}
{"sequence": "CAATTTTA", "PBM E-score": 0.0153}
{"sequence": "AATTGTCT", "PBM E-score": 0.0126}
{"sequence": "ATGCAACA", "PBM E-score": -0.286}
{"sequence": "CACAGTCG", "PBM E-score": -0.211}
{"sequence": "AACCAGGG", "PBM E-score": -0.055}
{"sequence": "TATATCCA", "PBM E-score": 0.0177}
{"sequence": "GTAGGAAA", "PBM E-score": -0.178}
{"sequence": "GCTCCGTA", "PBM E-score": 0.32}
